Measurements: article PMC2646141
No constants are given. Whether binding was seen depends on the method and setting. For some assays here: Binding seen in cells or lysates may run through a third protein. Some entries that bind do so weakly or less than the wild type. For some assays here: Tags and fused reporters may be left off the sequences shown. Values belong to the binder of their own block, whether it stands above or below them.

Tests used:
Conditions in all cases: remark: other sources report otherwise
[1] = target: wild type APOBEC3G (A3G) bait (human), Q9HC16; test: two-hybrid; yeast Y190; wild type A3G in the bait plasmid pGBKT7, wild type or mutant A3G in the prey plasmid pHB18; beta-galactosidase activity (chlorophenol red-beta-D-galactopyranoside), OD540, normalised to Tsg101 bait/Vps28 prey set at 4.0
[2] = target: HA-tagged wild type A3G (human), Q9HC16; test: co-IP; 293T cells co-transfected with pA3G-HA and a second A3G plasmid; cleared lysate (0.5% Triton X-100, 287 mM NaCl, pH 7.2); 3F10 anti-HA antibody and protein G- or A-agarose, 2 h at 4°C; aliquot without RNase A; immunoblot. In Figure 3A RNase A treatment substantially inhibited …
[3] = target: untagged wild type APOBEC3G (A3G) (human), Q9HC16; test: cross-linking; cleared lysate of transfected 293T cells treated with BM(PEO)3 (cysteine-reactive, 18 Å linker), 20°C, 1 h, quenched with DTT; SDS-PAGE and immunoblot for A3G; ~80 kD species; no RNase A, or RNase A after the crosslinking
[4] = target: HA-tagged wild type A3G (human), Q9HC16; test: cross-linking + co-IP; 293T cells co-transfected with A3G-myc and A3G-HA; lysate treated with BM(PEO)3, quenched with DTT, immunoprecipitated with 3F10 anti-HA and protein A-agarose, with or without later RNase A; blot with anti-myc

binding [1]: binds
B1: wild type APOBEC3G (A3G) prey, Q9HC16 1-384 (protein)
chain: MKPHFRNTVERMYRDTFSYNFYNRPILSRRNTVWLCYEVKTKGPSRPPLDAKIFRGQVYSELKYHPEMRFFHWFSKWRKLHRDQEYEVTWYISWSPCTKCTRDMATFLAEDPKVTLTIFVARLYYFWDPDYQEALRSLCQKRDGPRATMKIMNYDEFQHCWSKFVYSQRELFEPWNNLPKYYILLHIMLGEILRHSMDPPTFTFNFNNEPWVRGRHETYLCYEVERMHNDTWVLLNQRRGFLCNQAPHKHGFLEGRHAELCFLDVIPFWKLDLDQDYRVTCFTSWSPCFSCAQEMAKFISKNKHVSLCIFTARIYDDQGRCQEGLRTLAEAGAKISIMTYSEFKHCWDTFVDHQGCPFQPWDGLDEHSQDLSGRLRAILQNQEN

binding [2]: binds
binding [3]: binds
B2: untagged wild type APOBEC3G (A3G), Q9HC16 1-384 (natural protein)
chain: B1 chain

binding [2]: binds
binding [4]: binds
B3: myc-tagged A3G, Q9HC16 1-384 (protein)
chain: B1 chain
